# In PubChem BioAssay AID651820 (National Center for Advancing Translational Sciences (NCATS), 2012):
# Hit rate of the full screen: of about 340,000 compounds, about 12,000 (3.5%) were called active. Inconclusive results, whose numbers are uncertain, are shown with a selection of clear calls. Calls follow the shape of the dose curve; as a rule, active = well fitted inhibition curve with a large enough effect; inconclusive = small, poorly fitted or top-dose-only effect, or another doubt; inactive = no such curve, though single readings can be large or run the other way. No potency is given beside an inconclusive call; the fits are too rough.
# Experiment: qHTS Assay for Inhibitors of Hepatitis C Virus (HCV)
# Details: Huh7.5.1 HCVcc-Cre (HCVcc is cell-culture hepatitis C virus) infection, luciferase reporter, 44 h; series mostly up to 41.8 µM
# Summary of the method: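 HCVcc-Cre virus at an moi near 0.5 was added right after compound to cells cultured 4 h from seeding (1,000 cells/well). Luciferase activity was determined 44 h later, 15 min after substrate addition at RT.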
# Potency is read from the fitted curve at half-maximal effect; tags tell the direction and shape of the fitted curve.
row,SMILES,Potency
1,CCOc1ccc(OCC)c(NC(=O)CSc2nnnn2CC)c1,"inconclusive [inhibitor, single point]"
2,COc1ccc(/C=C/C(=O)Nc2cccc(S(=O)(=O)NC3=NCCCCC3)c2)c(OC)c1,"inconclusive [inhibitor, partial curve]"
3,CCN(CC(=O)Nc1cccc(C(C)=O)c1)S(=O)(=O)c1ccc(C)cc1,inactive
4,CCOC(=O)c1c(NC(=O)COc2ncnc3ccccc23)sc(C(C)=O)c1C,active: 7.08 µM
5,Cc1cc(NC(=O)c2ccco2)sc1C,"inconclusive [inhibitor, single point]"
6,NC(=O)c1nc[nH]c1C(=O)Nc1cccc(C(F)(F)F)c1,"inconclusive [inhibitor, partial curve]"
7,COc1cccc(Cn2c(Oc3cccc(C)c3)nc3c2c(=O)n(C)c(=O)n3C)c1,active: 11.2 µM
8,CC(C)(C)n1cnc2cc(NS(=O)(=O)c3ccc(Br)cc3)ccc21,"inconclusive [inhibitor, single point]"
9,COc1ccc(-n2c(Cc3cccn3C)nnc2SCC(=O)N2CCCC2)cc1,"inconclusive [inhibitor, single point]"
10,O=C(CCN1CCCCC1)Nc1ccc(Br)cc1C(=O)c1ccccc1,"inconclusive [inhibitor, single point]"
11,Cc1nc(SCC(=O)NCc2ccc(F)cc2)c2c(=O)n(C)c(=O)n(C)c2n1,"inconclusive [inhibitor, full curve]"
12,CCOC(=O)CN1C(=O)N[C@@H](c2cccc(C(F)(F)F)c2)C(C(=O)OC)=C1C,inactive
13,COc1ccccc1CNC(=O)C(Cc1c[nH]c2ccccc12)NC(=O)OCc1ccccc1 (stereo not given),"inconclusive [inhibitor, single point]"
14,CCCOC(=O)c1ccc(Oc2coc3c(CN(CC)CC)c(O)ccc3c2=O)cc1,"inconclusive [inhibitor, single point]"
15,OC(c1cccc(OCc2ccccc2)c1)c1nnc(-c2ccccc2)o1 (stereo not given),"inconclusive [inhibitor, partial curve]"
16,CCOC(=O)c1c(C)[nH]c(C)c1C(=O)CSc1nc2ccccc2c(=O)n1-c1ccc(Cl)cc1,"inconclusive [inhibitor, partial curve]"
17,O=C(CC1C(=O)NCCN1Cc1ccc(F)cc1)NCCCn1cccn1 (stereo not given),inactive
18,CCCS(=O)(=O)c1c(S(=O)(=O)CCC)c2cc(CC)ccn2c1C(=O)OC,"inconclusive [inhibitor, single point]"
19,Cc1nc(Nc2ccccc2)sc1C(=O)c1ccc(F)cc1,"inconclusive [inhibitor, partial curve]"
20,Cc1nc(-c2cccc(NC(=O)C(C)Oc3ccccc3)c2)cs1 (stereo not given),"inconclusive [inhibitor, partial curve]"
21,O=C(CSc1ccccc1)NCC(c1ccco1)N1CCCCC1 (stereo not given),inactive
22,Cc1cc2oc(=O)cc(CN(C)Cc3cccc(F)c3)c2cc1C,"inconclusive [inhibitor, partial curve]"
23,COc1cccc2[nH]c3c(Cl)ncnc3c12,"inconclusive [inhibitor, single point]"

row,SMILES,Potency
1,CCOC(=O)c1c(NC(=O)c2ccccc2C)sc2c1CC(C)(C)OC2,"inconclusive [inhibitor, full curve]"
2,CCCCN(C(=O)c1cc(-c2ccc(F)cc2)nc2ccccc12)c1c(N)n(CCCC)c(=O)[nH]c1=O,"inconclusive [inhibitor, single point]"
3,O=C(COC(=O)C1CC1)Nc1nc(-c2ccc(F)c(F)c2)cs1,"inconclusive [inhibitor, partial curve]"
4,O=C(NC(=S)NCc1ccccc1)c1ccccc1,inactive
5,Cc1c(N=C2C=CC(=O)c3ccccc32)c(=O)n(-c2ccccc2)n1C,inactive
6,COc1cc2[nH]c(=S)n(Cc3ccc(F)cc3)c(=O)c2cc1OC,inactive
7,CCOc1ccc(Cn2c(=O)oc3ccc(C)cc32)cc1OC,"inconclusive [inhibitor, partial curve]"
8,COc1ccc(-c2ccc(C#N)c(OC(=O)c3c(Cl)cccc3Cl)n2)cc1,active: 5.01 µM
9,COc1cc(CC(=O)Nc2ccccc2N2CCOCC2)cc(OC)c1OC,inactive
10,CCOC(=O)C1=C(CCl)NC(=O)NC1c1ccc2c(c1)OCO2 (stereo not given),"inconclusive [inhibitor, single point]"
11,CN(C)S(=O)(=O)c1cccc(COC(=O)c2cc([N+](=O)[O-])ccc2N2CCOCC2)c1,active: 12.6 µM
12,O=C(NCCS(=O)(=O)N1CCN(Cc2ccccc2)CC1)c1ccc(F)cc1,inactive
13,O=C(Nc1ccc(-c2nc3ccccc3o2)cc1)c1cc(-n2cnnc2)ccc1Cl,"inconclusive [inhibitor, partial curve]"
14,CCOC(=O)C1CCN(CCC(=O)Nc2cccc(Cl)c2C)CC1,"inconclusive [inhibitor, single point]"
15,O=C(NC(=S)NCCc1ccccc1)C1CCCCC1,"inconclusive [inhibitor, partial curve]"
16,CN1CCSc2ccc(C(=O)Nc3cc(F)ccc3F)cc21,"inconclusive [inhibitor, partial curve]"
17,CCN(CC)CCn1c(-c2ccc(C)cc2)nc(=S)c2c1CC(C)(C)OC2,inactive
18,Cc1ccc(C)c(N2CCN(C(=O)CCc3nc(-c4ccccc4Br)no3)CC2)c1,"inconclusive [inhibitor, single point]"
19,COc1ccc(CC(=O)Nc2cc(Cl)ccc2N2CCCC2)cc1,"inconclusive [inhibitor, single point]"
20,Cc1cc(C(=O)N2CCc3ccccc32)n(-c2ccccc2)n1,"inconclusive [inhibitor, single point]"
21,O=C(N/N=C/c1ccc[nH]1)c1ccccc1[N+](=O)[O-],inactive
22,C[C@]12C(=O)N(c3cccc(Cl)c3)C(=O)N1[C@@H]1c3ccccc3OC[C@@H]1[C@H]2c1ccccc1,"inconclusive [inhibitor, full curve]"
